In PubChem BioAssay AID624417 (National Center for Advancing Translational Sciences (NCATS), 2012):
In all, about 410,000 compounds went through this assay and about 6,400 (1.6%) were called active. Inconclusive means that the source gave no clear call. Such entries were picked first, then a sample of the others. Calls come from the whole dose curve; as a rule, active = well fitted inhibition curve with a large enough effect; inconclusive = small, poorly fitted or top-dose-only effect; inactive = no such curve, though single readings can be large or run the other way. Where the call is inconclusive, the potency comes from a doubtful curve fit.

Molecular target: Glucagon-like peptide 1 receptor (Homo sapiens) (UniProt P43220)
Test: qHTS of GLP-1 Receptor Inverse Agonists (Inhibition Mode); note: nearly all actives have a fitted effect of over 55% in size
Settings: HEK293 GLP-1R CRE-luciferase, luminescence, 24 h, GLP-1R form is constitutively active; series mostly up to 38.3 µM
Summary of the method: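 Constitutively active GLP-1R drives a cAMP-responsive luciferase in stably transfected HEK293 cells; test compounds are added after overnight (12 h) attachment and left 24 hr, and signal loss in luminescence marks inhibition.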
Potency is the fitted concentration of half-maximal effect; tags give direction and shape of the fitted curve.

Chain of UniProt P43220 (P43220 whole entry, looked up): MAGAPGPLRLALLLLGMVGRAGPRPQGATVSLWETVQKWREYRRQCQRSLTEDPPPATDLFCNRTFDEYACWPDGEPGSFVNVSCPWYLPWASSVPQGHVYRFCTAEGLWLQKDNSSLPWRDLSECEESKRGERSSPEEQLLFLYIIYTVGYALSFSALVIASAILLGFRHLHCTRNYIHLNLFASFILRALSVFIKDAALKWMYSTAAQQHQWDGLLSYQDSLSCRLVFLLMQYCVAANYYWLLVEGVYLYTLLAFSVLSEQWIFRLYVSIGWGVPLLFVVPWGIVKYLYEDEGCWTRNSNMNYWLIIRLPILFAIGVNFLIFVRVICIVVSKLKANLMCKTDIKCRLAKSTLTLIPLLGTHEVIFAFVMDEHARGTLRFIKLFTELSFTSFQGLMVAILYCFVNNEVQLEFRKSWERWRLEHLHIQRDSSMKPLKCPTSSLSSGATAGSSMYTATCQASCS

Potency, inconclusive:
CC1CC1C(=O)Nc1nc(-c2cccs2)c(-c2cccs2)s1 (configuration not stated) 28.2 µM [inhibitor, single point]
COc1ccc(Br)cc1CC1C(=O)Nc2ccccc21 (configuration not stated) 8.91 µM [inhibitor, partial curve, poor fit]
Cc1cccc(C(=O)Nc2cc(S(=O)(=O)N3CCOCC3)ccc2N2CCCCC2)c1 28.2 µM [inhibitor, single point]
Cc1cccc(N2CCN(S(=O)(=O)c3ccc4c(c3)OCCO4)CC2)c1C 10 µM [inhibitor, single point]
Cc1ccc(-n2ncc(C(=O)N3CCN(c4cccc(C)c4C)CC3)c2C2CCNCC2)c(C)c1 12.6 µM [inhibitor, partial curve, poor fit]
CCN(c1ccccc1)S(=O)(=O)c1cccc(C(=O)NCC(c2ccc(F)cc2)N2CCOCC2)c1 (configuration not stated) 28.2 µM [inhibitor, single point]
CCN1CCN(C(=O)C2CCN(S(=O)(=O)c3ccc(Br)cc3)CC2)CC1 4.47 µM [inhibitor, partial curve, poor fit]
CC1Cc2ccccc2N1S(=O)(=O)c1cccc(C(=O)OCC(=O)NCc2ccco2)c1 (configuration not stated) 11.2 µM [inhibitor, single point]
CC(C)c1nc(SCC(=O)Nc2nc3c(s2)CCCC3)c2ccccc2n1 12.6 µM [inhibitor, single point]
OCCN(Cc1ccccc1)Cc1ccc(C(F)(F)F)cc1 28.2 µM [inhibitor, single point]
OC(CN1CCN(C(c2ccccc2)c2ccccc2)CC1)c1ccccc1 (configuration not stated) 22.4 µM [inhibitor, single point]
COc1ccc(-c2ccc(C(=O)NCCN(C)C)c3occc23)c(C)c1 15.8 µM [inhibitor, partial curve, poor fit]
CCOc1ccc(OCCCC(=O)N2CCN(S(=O)(=O)c3ccccc3C#N)CC2)cc1 7.94 µM [inhibitor, partial curve, poor fit]
CNC(=S)N1N=C(c2cccs2)CC1c1ccc(F)cc1 (configuration not stated) 11.2 µM [inhibitor, partial curve, poor fit]
O=C(/C=C/c1cccc(Br)c1)NC1CCN(Cc2ccccc2)CC1 11.2 µM [inhibitor, partial curve, poor fit]
CNC(=S)N/N=C/c1cc(Br)c(OCc2ccncc2)c(OC)c1 11.2 µM [inhibitor, partial curve, poor fit]
COc1ccc(N(C2CSC2)S(=O)(=O)c2ccccc2)cc1 25.1 µM [inhibitor, partial curve, poor fit]
O=C(NCc1nnc(SCC(=O)N2CCCc3ccccc32)n1-c1ccccc1)c1cccc2ccccc12 8.91 µM [inhibitor, single point]
CN1CCN(S(=O)(=O)c2ccc(Nc3ccc(F)cc3)c([N+](=O)[O-])c2)CC1 4.47 µM [inhibitor, partial curve, poor fit]
CC(C)(C)c1ccc(CC(=O)N2CCC2(C)C(=O)NS(=O)(=O)c2ccc(Cl)s2)cc1 (configuration not stated) 17.8 µM [inhibitor, single point]
CCc1ccc2c(c1)NC(=O)C2(C)Cc1ccc(OC(F)(F)F)cc1 (configuration not stated) 20 µM [inhibitor, partial curve, poor fit]
O=C(CCCCl)NC1=NN(c2ccccc2)C(=O)C1 3.16 µM [inhibitor, full curve]
CN(C)CCCN(C(=O)c1ccc(S(=O)(=O)N2CCc3ccccc32)cc1)c1nc2c(Cl)cccc2s1 11.2 µM [inhibitor, partial curve]
O=C(c1cccc(Cl)c1)C1CCCN(C(=O)c2ccc3c(c2)OCO3)C1 (configuration not stated) 22.4 µM [inhibitor, single point]
CN1CCN(/N=C/c2ccc(OCc3ccccc3)cc2)CC1 10 µM [inhibitor, partial curve, poor fit]
O=C(Nc1nc2ccc(Cl)cc2s1)C1CCCO1 (configuration not stated) 28.2 µM [inhibitor, single point]
O=C(NCCC1CCCCN1S(=O)(=O)c1ccc(F)cc1)C(=O)Nc1ccccc1 (configuration not stated) 28.2 µM [inhibitor, single point]
Cc1cccc(Cn2c(SCc3ccc(C(=O)NCc4ccccc4F)cc3)nc3cccnc32)c1 10 µM [inhibitor, partial curve, poor fit]
Cc1cccc(-n2nnnc2SCC(=O)NCC2(N3CCOCC3)CCCCC2)c1C 8.91 µM [inhibitor, partial curve, poor fit]
CC1CN(C(=O)Nc2ccc3snnc3c2)c2ccccc21 (configuration not stated) 28.2 µM [inhibitor, single point]
Cc1ccccc1CC1(CO)CCCN(Cc2c(C)nn(C)c2Cl)C1 (configuration not stated) 7.94 µM [inhibitor, partial curve, poor fit]
O=C(COCc1cc(-c2ccc3c(c2)OCO3)on1)N1CCN(c2cccc(C(F)(F)F)c2)CC1 15.8 µM [inhibitor, single point]
O=C(NCc1cccc2ccccc12)Nc1ccccc1 11.2 µM [inhibitor, partial curve, poor fit]

Potency, active:
CCOC(=O)c1cc(-c2ccc(F)cc2)n(CCC(=O)NCc2ccc(C)cc2)c1C 10 µM
CCOC(=O)C1(CCCc2ccccc2)CCN(Cc2nccn2CC)CC1 10 µM

Potency, inactive:
CCC(=O)N1CCc2cc(S(=O)(=O)NCCC(=O)Nc3cccc(SC)c3)ccc21
COc1cc2nc(NC(=O)c3ccc(S(=O)(=O)N4CCCC4)cc3)sc2cc1OC
